Data taken from PubChem BioAssay AID488969 (Vanderbilt High Throughput Screening Facility, 2010).
The full ranking holds about 110,000 compounds; the median of “z-score” is about -0.1, and the highest 2% start at about 2. This is one part of the list.

Target: Metabotropic glutamate receptor 8 (Rattus norvegicus) (UniProt P70579)
Assay: rat mGluR8 modulators via GIRK flux, primary screen, cell-based, thallium flux, HTS (AID 488969)
Settings: HEK293 rat mGluR8, GIRK (G protein-gated inwardly rectifying potassium channel) thallium flux, FluoZin2; at 10 µM; stronger effect = higher value; submaximal glutamate (EC20) added with thallium

UniProt P70579, sequence (P70579 whole entry, looked up): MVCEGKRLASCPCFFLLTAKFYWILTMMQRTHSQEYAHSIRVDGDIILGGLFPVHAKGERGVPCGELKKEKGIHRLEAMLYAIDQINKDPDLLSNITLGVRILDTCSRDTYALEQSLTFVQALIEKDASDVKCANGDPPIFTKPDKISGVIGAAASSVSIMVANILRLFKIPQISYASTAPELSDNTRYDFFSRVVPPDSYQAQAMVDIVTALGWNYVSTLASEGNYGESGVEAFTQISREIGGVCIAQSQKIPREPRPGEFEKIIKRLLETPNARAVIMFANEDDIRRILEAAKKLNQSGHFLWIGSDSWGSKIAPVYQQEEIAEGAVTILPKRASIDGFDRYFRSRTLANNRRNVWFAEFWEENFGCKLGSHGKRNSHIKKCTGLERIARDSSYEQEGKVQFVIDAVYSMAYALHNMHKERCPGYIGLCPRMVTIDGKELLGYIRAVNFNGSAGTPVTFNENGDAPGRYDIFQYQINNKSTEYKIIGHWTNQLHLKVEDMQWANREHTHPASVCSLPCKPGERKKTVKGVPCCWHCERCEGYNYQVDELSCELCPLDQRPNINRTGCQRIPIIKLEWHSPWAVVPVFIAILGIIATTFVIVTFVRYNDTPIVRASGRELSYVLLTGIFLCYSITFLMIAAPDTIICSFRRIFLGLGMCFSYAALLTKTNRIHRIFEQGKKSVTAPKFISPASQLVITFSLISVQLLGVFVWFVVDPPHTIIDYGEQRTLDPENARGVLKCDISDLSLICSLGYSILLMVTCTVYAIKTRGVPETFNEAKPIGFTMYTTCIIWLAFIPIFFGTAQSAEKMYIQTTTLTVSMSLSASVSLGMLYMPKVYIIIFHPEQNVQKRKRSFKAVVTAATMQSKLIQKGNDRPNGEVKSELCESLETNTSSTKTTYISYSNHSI

Compound | z-score
O=C(Nc1cnccn1)c1cccc(C(F)(F)F)c1 | 0.246
O=c1c2c(nc3nc(CCc4ccccc4)[nH]n13)CCC2 | -1.58
CCOC(=O)C1CCN(c2c([N+](=O)[O-])c(C(Cl)Cl)nn2-c2ccccc2)CC1 | 0.474
CNCC(=O)Nc1c(C)n[nH]c1C | -0.193
O=C1c2ccccc2NC(c2ccc(O)cc2)N1/N=C/c1ccc(O)cc1 (configuration not stated) | -0.272
Cn1c(=O)[nH]c(=O)c2c1nc(N1CCCC1)n2CCCSc1nnnn1-c1ccccc1 | 0.537
CC(C)c1cccc(C(C)C)c1NC(=O)CNCc1ccccc1F | -0.0869
COc1cc(C(=O)NCC(C)C)c([N+](=O)[O-])cc1OC | -0.183
COCCN1CN(S(=O)(=O)c2ccc(Cl)cc2)c2nc3ccccc3nc21 | -0.539
O=C(Nc1ccc2ccccc2c1)/C(=C/c1cccc(Br)c1)NC(=O)c1ccco1 | -0.0641
COc1cccc(OC)c1NC(=O)CN1CCC(NC(=O)c2cccc(F)c2)CC1 | -0.0108
COc1cccc(/C=N/NC(=O)CNC(=O)c2ccc3c(c2)OCCO3)c1O | -0.139
Cc1ccc(C2C(C(=O)c3cccs3)=C(O)C(=O)N2CCN2CCOCC2)o1 (configuration not stated) | 0.174
Cc1ccc(CCC(=O)Nc2ncc(Cc3cccc(Cl)c3Cl)s2)o1 | -0.175
CCN(CC)Cc1c(O)c(Cl)cc2c(C)c(C)c(=O)oc12 | -0.0688
CC1CCN(C(=O)Cc2nn(C)c(=O)c3ccccc23)CC1 | 0.733
Cc1ccc(-c2nnn(C(C)C(=O)N3c4ccccc4CCc4ccccc43)n2)cc1 (configuration not stated) | -0.284
CCN1CCN(C(=O)CN2C(=O)c3cccc4cccc2c34)CC1 | -0.191
COc1ccc(-c2[nH]ncc2/C=C(/C#N)C(=O)NC2CCCCC2)cc1 | -0.277
Cc1cc(C(=O)CSc2nc3ccccc3n2CCC#N)c(C)n1Cc1cccs1 | 0.0321
O=C(N/C(=C/c1ccc(Cl)cc1)c1nc2ccccc2[nH]1)c1ccco1 | -0.23
CCOc1cc(/C=N/NC(=O)C(=O)NC2CC2)cc(Br)c1O | 0.0856
COC(=O)c1nc(-c2ccccc2)n[nH]1 | -0.231

Compound | z-score
Cc1cccc(C)c1NC(=O)C1CCCN(CCCc2ccccc2)C1 (configuration not stated) | 0.106
COc1cc(-c2n[nH]c(=O)o2)cc(OC)c1OC | -0.304
Nc1ncnc2c1ncn2CCN1CCCCC1 | 0.406
CCc1ccc(C(=O)/C=C/NCc2ccc(F)cc2)cc1 | -0.104
O=C(Nc1ccc2nc(-c3ccc(Br)o3)[nH]c2c1)c1ccco1 | -0.408
COc1cccc(NC(=O)CSc2nnnn2C(C)C)c1 | -0.0541
CCOC(=O)C1=C(C)NC(=O)NC1c1ccoc1 (configuration not stated) | 0.05
COc1ccc(CCN2C(=O)C(Oc3ccccc3)C2c2ccc3c(c2)OCO3)cc1 (configuration not stated) | -0.146
Cc1ccc(-c2cc(N)n(Cc3ccc(Cl)cc3)n2)cc1 | -0.532
COc1cc(NC(=S)N2CCN(C(=O)c3ccco3)CC2)c(OC)cc1Cl | 0.0584
O=C(Cn1nnc2ccccc21)N/N=C\C=C\c1ccccc1 | -0.239
CCn1c(SCC(=O)c2ccc(C)cc2)nnc1-c1ccoc1C | -0.127
CN1CCN(S(=O)(=O)c2cccc([N+](=O)[O-])c2)CC1 | -0.242
CN(C)c1ccc(NC(=O)c2cccc(C(=O)Nc3ccc(N(C)C)cc3)n2)cc1 | -0.291
N#Cc1ccc(OCC(=O)N/N=C2\CCc3ccccc32)cc1 | -0.239
CCOC(=O)N1CCN(C(=O)C(CC(C)C)NS(=O)(=O)c2ccc3c(c2)oc(=O)n3C)CC1 (configuration not stated) | -0.122
Cc1ccc(C(=O)COC(=O)CCCC(=O)Nc2cc(C(F)(F)F)ccc2Cl)cc1C | 0.00411
CCC1CCCCN1C(=O)CSc1nnc(-c2ccc(Cl)cc2)o1 (configuration not stated) | -0.41
CC(Oc1ccccc1F)C(=O)Nc1ccc2ccccc2c1 (configuration not stated) | -0.148
COCCN=c1scc(-c2cc(OC)ccc2OC)n1/N=C/c1c[nH]c2ccccc12 | -0.343
CCOc1ccc(NC(=O)CN(c2cc(C)cc(C)c2)S(=O)(=O)c2c(C)noc2C)cc1 | -0.145
COc1cccc(NC(=O)c2ccccc2-c2nc(-c3ccc(F)cc3)no2)c1 | 0.389
COc1ccc2c(c1)[nH]c1c(=O)n(N)cnc12 | 0.257

Compound | z-score
O=S(=O)(NCc1ccco1)N1CCCCCC1 | -0.0741
CCNC(=O)N(C)c1nncnc1C(=O)NC | 0.0162
C=CCc1c(C)c(C#N)c2nc3ccccc3n2c1NCCN(C)C | -0.0726
COc1cc(OC)c(C(=O)NNC(=S)NC2CCCCC2)cc1OC | -0.573
CC(C)(C)C(=O)N1CCN(c2c(Cl)cccc2[N+](=O)[O-])CC1 | -0.000363
CC1=CC(c2ccccc2)n2nc(N3C(=O)CCC3=O)nc2N1 (configuration not stated) | -0.00161
CCCC1(C(=O)O)NC(c2ccccc2O)C2C(=O)N(c3cccc(Cl)c3)C(=O)C21 (configuration not stated) | -0.488
CCCCOc1ccc(OCCNS(=O)(=O)N(C)C)cc1 | -0.0575
COC(=O)c1sc(NC(=O)c2ccc(Cn3cc(Cl)cn3)o2)c(C#N)c1C | -0.585
CC1CCCCN1C(=O)Cc1ccc(Cl)cc1 (configuration not stated) | -0.133
CCOc1cc(-c2cn(S(=O)(=O)c3cccc4nsnc34)nc2N)cc(OCC)c1OCC | -0.165
COc1ccc(-c2ccc(SCC(=O)N3c4ccccc4CC3C)nn2)cc1OC (configuration not stated) | -0.926
CC(C)(C)C(=O)Nc1ccc(N2CCCC2)cc1 | -0.154
Cc1ccc(NCc2nnc(SCC(=O)c3ccc4c(c3)OCCO4)o2)c(C)c1 | -0.642
O=C(c1cccs1)N1CCCC1 | 0.801
COC1=CCC2([N+](=O)[O-])CN(CCO)CC1([N+](=O)[O-])C2 (configuration not stated) | -0.335
C/C(=N/OCO/N=C(/C)c1ccc(F)cc1)c1ccc(F)cc1 | -0.112
O=C(CSc1ncn[nH]1)Nc1c(Br)cc([N+](=O)[O-])cc1Br | -0.332
Cc1cccc(CSC(=N)N)c1 | 0.0999
CCN(CC)S(=O)(=O)c1ccc(NC2c3ccccc3C(=O)N2c2ccc(C)cn2)cc1 (configuration not stated) | -0.341
CC(=O)NCCn1c(C)cc2ccccc21 | 0.834
Fc1cnc(N2CCc3ccccc32)nc1N1CCc2ccccc21 | -0.19
CC(C)CCSc1ncnc2c1oc1nc3c(cc12)COC(C)(C)C3 | -0.0586

Compound | z-score
C=CCOn1c(=O)c(=O)n(OCc2ccccc2)c2ccccc21 | -0.0797
O=S(=O)(c1cccc2cccnc12)n1cnc2ccccc21 | -0.507
O=C(O)CCCCCN=C1CCc2ccccc2N1 | -0.601
CCCCC1(CCCC)NC(=S)N(Nc2ccc(C)cc2)C1=O | -0.236
C(=C\c1ccccc1)/CN1CCN(Cc2ccc3c(c2)OCCO3)CC1 | -0.204
O=C(CNC(=O)c1cccs1)NCC(=O)OCc1ccc(Cl)cc1 | -0.197
O=C(NC1(C(F)(F)F)NC(=O)N(Cc2cccnc2)C1=O)c1ccncc1 (configuration not stated) | 2.13
CCN(CC)S(=O)(=O)c1ccc(NC(=O)C2CCCN(C(=O)c3ccc(Cl)cc3)C2)cc1 (configuration not stated) | -1.01
O=C(c1ccc(Cn2cc(Br)cn2)o1)n1cccn1 | -0.666
CS(=O)(=O)N(CC(=O)Nc1ccc(S(=O)(=O)N2CCCC2)cc1)c1ccccc1F | -0.46
COc1ccc(OC)c(/C=N\NC(=O)CSc2nnc(CCCc3ccc(OC)c(C)c3)o2)c1 | 0.0122
COc1ccc(-c2nc3ccccc3[nH]2)cc1 | 0.164
CC(C)(C)CC(C)(C)NC(=S)NC1CCN(Cc2ccccc2)CC1 | -1.42
COc1ccc(NC(=O)c2cc(OC)c(OC)c(OC)c2)cn1 | -0.169
COc1ccc(-n2c(C)cc(C(=O)COC(=O)c3cc(OC)c(OC)cc3NC(=O)c3cccs3)c2C)cc1 | -0.000819
COCCn1c(SCC(=O)Nc2ccc(C)cc2C)nc2c(oc3ccccc32)c1=O | 0.175
COc1ccc2c(c1)c(=O)oc1cc(OCC(=O)NC3CC3)ccc12 | 0.671
O=C(O)CSc1ccc2ccccc2n1 | -0.359
CC(C)SC1=NC(C)(C)C=C(/C=C/c2ccc(Cl)cc2Cl)N1 | 0.335
Cc1cc(C)nc(NC2=NCC(=O)N2CCc2c[nH]c3ccccc23)n1 | 0.182
CC(C(=O)NCc1ccco1)n1nc(-c2ccccc2)c2cc(Cl)ccc21 (configuration not stated) | -0.295
COc1ccc(C(C[N+](=O)[O-])c2c(C)[nH]c3ccccc23)cc1OC (configuration not stated) | -2.31
Cc1noc(C)c1C1(O)CCCCCCCCCCC1 | -0.117

Compound | z-score
Brc1ccc2c(c1)C(c1cccnc1)=NNC(c1cccs1)=N2 | -0.465
Cc1sc2ccccc2[n+]1CCC(C)S(=O)(=O)[O-] (configuration not stated) | -0.108
CC(=O)Oc1ccc2c(=O)c(Oc3ccccc3)coc2c1OC(C)=O | -0.317
N#CCCn1cc(/C=N/O)c(-c2ccc(F)cc2)n1 | -0.128
O=C(CCC(=O)OCc1cccc(C(=O)Oc2ccccc2)c1)Nc1cccc2ccccc12 | -0.257
CCC(=O)N1CCN(c2ccc(NC(=O)c3ccc(-c4ccccc4)cc3)cc2)CC1 | 0.0984
C=CCn1c(N)c(C(=O)Nc2ccc(C)cc2)sc1=S | -0.33
COc1cc(CNCc2cccs2)ccc1OCC(N)=O | -0.117
O=C(CN1CCN(S(=O)(=O)c2ccc(Cl)s2)CC1)NCc1ccc(Cl)cc1 | -0.194
COc1cccc(-c2cc(C(=O)N3CCCCCC3)no2)c1 | -0.146
CC(C)SC1=NC(C)(C)C=C(/C=C/c2c(Cl)cccc2Cl)N1 | -0.226
O=C(COC(=O)[C@@H]1CCCN1C(=O)c1cccs1)NCCc1ccccc1 | -0.189
O=C1CN(C(=O)c2ccccc2)c2ccccc2N1 | 0.62
COc1cccc(S(=O)(=O)Nc2ccc3sc(C)nc3c2)c1 | 0.296
COc1ccc(C2SCC(C(=O)NCc3ccc(F)cc3)N2C(C)=O)cc1 (configuration not stated) | 0.16
CCOC(=O)C(C)Oc1cccc2c(=O)n(CC(=O)NCc3ccc4c(c3)OCO4)ccc12 (configuration not stated) | 0.0188
O=C(Nc1ccccc1N1CCCCC1)c1cccc(F)c1 | 0.0251
CCOC(=O)N1CCN(C(=O)Cn2nc(-c3ccc(Cl)cc3)ccc2=O)CC1 | 0.862
COCCNC(=O)CN(C(=O)Cn1nnc2ccccc21)c1ccc(C)c(F)c1 | 0.414
CC(=O)C1=C(C)NC(SCC(=O)c2ccccc2)=C(C#N)C1c1ccco1 (configuration not stated) | -1.16
